From PubChem BioAssay AID1508624 (National Center for Advancing Translational Sciences (NCATS), 2021)
About 120 (0.25%) of roughly 48,000 compounds were called active. Another 4% or so got no clear call; they are omitted. Calls follow the shape of the dose curve; as a rule, active = well fitted activation curve with a large enough effect; inconclusive = small, poorly fitted or top-dose-only effect, or another doubt; inactive = no such curve, though single readings can be large or run the other way. The list shows a part of the results.

experiment: Primary qHTS for Identification of Small Molecule Activators of Huntingtin-Antisense Promoter Activity; details: HEK293 HTT-AS promoter firefly luciferase reporter, 24 h; series mostly up to 57.5 µM; activity change, positive = activation: at the top concentration; also: nearly all actives have a fitted effect of over 55% in size
Procedure, shortened: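 Quantitative HTS used concentration series of up to 57.5 uM final on HEK293 luciferase reporter cells, 24 h at 37 degrees C. Readout was Dual-Glo firefly luminescence.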

Activity change, positive = activation, inactive:
CCOC(=O)c1cc2c(=O)n3ccccc3nc2n(CC2CCCO2)c1=NC(=O)c1ccccc1OCC (centres undefined) -31.2%, CC(C)n1c(SCC(=O)c2ccc(F)cc2)nc2c(sc3ccccc32)c1=O -8.65%, COc1ccccc1OCCCn1c(C2CC(=O)N(c3ccc(F)cc3)C2)nc2ccccc21 (centres undefined) -11.6%, COc1ccc(CCNC(=O)c2c(Nc3ccccc3C)sc(C(=O)c3ccccc3)c2N)cc1OC -25.6%, Cc1cccc2nc(Cn3c(=O)n(-c4ccccc4)c(=O)c4c5c(sc43)CCC5)cc(=O)n12 1.82%, CCOc1ccccc1NC(=O)CSc1nnc(CC)c(CC)n1 -6.89%, CCCCC(CC)CNC(=O)c1ccc(Cn2c(=O)[nH]c3cc(OC)c(OC)cc3c2=O)cc1 (centres undefined) -10.9%, CCN1c2ccccc2-c2nc(SCC(=O)Nc3cc(OC)cc(OC)c3)ncc2S1(=O)=O -2.06%, COc1ccc(-c2nn(C)c3sc(C(=O)Nc4cc(OC)c(OC)c(OC)c4)cc23)cc1OC -36.3%, CCCN(C(=O)c1c(C)oc2ncn(CC(C)C)c(=O)c12)c1ccccc1C -11.5%, CCCOc1ccc(C(=O)Nc2cc(-c3nc4ccccc4[nH]3)ccc2C)cc1 3.7%, COc1cccc(CN2CCCN(Cc3ccc(F)cc3)S2(=O)=O)c1 -14.5%, Cc1ccc(O)c(NC(=O)C2=CC(c3cccs3)=NS(=O)(=O)N2C)c1 -28.9%, Cc1ccccc1OCC(=O)Nc1nnc(SCc2cc(=O)n3cccc(C)c3n2)s1 -3.22%, COc1cccc(CNC(=O)c2cc3cc(C)ccc3n2C)c1 -24.5%, Cc1ccccc1OCc1nnc(SCc2cc(=O)c3cc(F)ccc3[nH]2)n1C -40.6%, N#C/C(=C\c1cccc(F)c1)c1nc(-c2cc3ccccc3oc2=O)cs1 6.9%, Cc1ccc2c(c1)c1c(c(=O)n(Cc3ccccc3)c(=O)n1Cc1cccc(F)c1)n2C -11%, COc1ccc(-c2nc3ccccc3o2)cc1NC(=O)c1cc([N+](=O)[O-])ccc1N1CCOCC1 24%, Cc1ccc(S(=O)(=O)c2cn(CC(=O)Nc3ccc4c(c3)OCO4)c3ccc(C)cc3c2=O)cc1 -0.509%, COc1ccc(-c2ccc(CCC(=O)O)n2-c2ccccc2C(F)(F)F)cc1 -19%, CCC1CN(CC(=O)NCc2cccc(Br)c2)c2ccccc2S1 (centres undefined) -19.6%, CC[C@H](c1ccc(O)cc1)[C@@H](CC)c1ccc(O)cc1 -28.3%, CCOc1ccc(-c2cc(C)n3nc(C(=O)Nc4ccc(C)c(C)c4)cc3n2)cc1 -35.1%, Cc1c(Nc2ncccc2C(=O)O)cccc1C(F)(F)F 13.2%, CCc1nnc(SCC(=O)Nc2ccc(OC)c(OC)c2)c2cc3occc3n12 -20.2%, CC(Oc1ccccc1)C(=O)Nc1ccccc1C(=O)OCc1cc(=O)n2nc(C3CC3)sc2n1 (centres undefined) 4.95%, CCc1ccc(N2CC(C)Cn3c2nc2c3c(=O)n(CC(=O)O)c(=O)n2C)cc1 (centres undefined) -5.85%, COC(=O)Cc1c(C)nc2nc(NCc3ccc(Br)cc3)[nH]n2c1=O -3.6%, CCOC(=O)CN(Cc1ccccc1)C(C(=O)NC1CCCCC1)c1ccccc1 (centres undefined) -43.3%, CCOc1ccc(-n2cc(-c3ccccc3)c3c(NCc4ccccc4)ncnc32)cc1 -17.4%, COC(=O)Cc1c(C)c2ccc3c(c2oc1=O)CN(Cc1ccc(Cl)cc1)CO3 -22.8%, COCCn1c(SCc2ccccc2F)nc2c([nH]c3ccccc32)c1=O -26.2%, COc1ccc(CNC(=O)C2CCN(S(=O)(=O)N3CCC(C)CC3)CC2)c(OC)c1 -23.1%, Cc1cccc(CNC(=O)c2ccc(Cn3c(SCc4cccc(F)c4)nc4cccnc43)cc2)c1 -32%, COc1cc(CN(C(=O)c2ccc(C)cc2)C2CCS(=O)(=O)C2)cc(OC)c1OC (centres undefined) 5.8%, CCCSc1ncc(Cl)c(C(=O)Nc2ccc(S(=O)(=O)N3CCCCC3C)cc2)n1 (centres undefined) -37.2%, COc1cccc(NC(=O)C2CC(=O)N(c3ccc(Br)cc3)C2)c1 (centres undefined) -14.5%, COc1ccc(NC(=O)CCn2cnnn2)cc1 -2.62%, CC(C)(C)c1ccccc1NC(=O)CSc1nc(-c2cccs2)cc(C(F)(F)F)n1 -33.1%, Cc1nn(CC(=O)Nc2cc(F)ccc2F)c(=O)c2cccn12 -4.91%, CC(C)c1noc(-c2ccccc2OCC(=O)Nc2ccccc2[N+](=O)[O-])n1 -32.7%, Cc1cc(Nc2ccc(Cl)cc2C)nc(-n2nc(C)cc2C)n1 -38.5%, O=C(NCc1ccc2c(c1)CCN2C(=O)c1ccc(F)cc1)c1ccco1 -11.8%, Cc1c(CNC2CCCCC2)c(C(=O)O)c(C)n1Cc1ccc(F)cc1 -12.7%, CCC(=O)Nc1ccc2nc3c(=O)n(C)c(=O)n(C)c3nc2c1 5.67%, CCOc1ccc(C(=O)Nc2ccc(-n3nncc3-c3ccccc3)cc2)cc1OCC -33.5%, CCN(C(=O)c1cc2c(=O)n3cccc(C)c3nc2s1)c1ccc(C)c(C)c1 -21.3%, CCOC(=O)[C@H]1O[C@H]1C(=O)N[C@@H](CC(C)C)C(=O)NCCC(C)C -7.39%, CCC(NC(=O)Nc1cc(OC)ccc1OC)c1c(-n2cccc2)sc2c1CCN(CC)C2 (centres undefined) -14.6%, CCOC(=O)c1ccc(NC(=O)C2(S(=O)(=O)c3ccc(Cl)cc3)CC2)cc1 -15.5%, C=Cc1ccc(COc2ccc3oc(-c4ccccc4)c(C(=O)OCC)c3c2)cc1 28% [at 11.5 µM, percent change from vehicle, -100% = no light], COc1ccc(CNC(=O)c2cc(=O)c3cc(C)ccc3o2)cc1 -14.4%, Cc1cccc(C)c1NS(=O)(=O)c1ccc(NS(=O)(=O)c2ccc3c(c2)OCCO3)cc1 -28.2%, Cc1ccccc1NC(=O)CCC(=O)N1CC(C)Sc2ccccc21 (centres undefined) -26.5%, COc1cccc(CNC(=O)CSC2=Nc3ccccc3C3=NC(C(C)C)C(=O)N23)c1 (centres undefined) 12%, Cc1ccc(C)c(N2CCN(CCCNC(=O)c3ccc4nc(N5CCCCC5)sc4c3)CC2)c1 -35.4%, Cc1ccc(-c2nnc(Nc3ccccc3)c3ccccc23)cc1S(=O)(=O)NCc1nc2ccccc2[nH]1 -33.1%, Cc1cccc(N2CCN(C(=O)CCS(=O)(=O)c3ccc4c(c3)oc(=O)n4C)CC2)c1C 5.6% [at 11.5 µM, percent change from vehicle, -100% = no light]
